# ± gives the standard deviation of the averaged measurements. The full ranking holds about 33,000 sequences; the median of “E-score (dimensionless, -0.5 to 0.5)” is about -0.049, and the highest 2% start at about 0.37. The list shows a part of the results.
# System: T1, PmTbr T-box DNA-binding domain (GST fusion)
# T1 sequence: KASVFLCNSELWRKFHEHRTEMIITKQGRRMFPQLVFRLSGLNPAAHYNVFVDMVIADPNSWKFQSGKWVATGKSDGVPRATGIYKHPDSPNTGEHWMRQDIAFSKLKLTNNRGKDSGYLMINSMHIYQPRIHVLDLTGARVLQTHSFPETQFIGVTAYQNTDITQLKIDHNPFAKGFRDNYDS
# Assay: PBM E-score of 8-mer (E-score (dimensionless, -0.5 to 0.5)); Tbr is Tbrain of the sea star Patiria miniata (Pm) or the sea urchin Strongylocentrotus purpuratus (Sp); higher = stronger binding preference; most listed sequences are background and not binding sites
# Conditions: the construct has about 5 more residues each side
# In short: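 Universal Agilent oligonucleotide arrays, made double-stranded by primer extension, were incubated with 200 nM GST-fused Tbr T-box DNA-binding domain in PBS (pH 7.5). The protein was expressed in BL21 E. coli at 20 °C and purified by glutathione affinity chromatography. After scanning and quantification, the Universal PBM Analysis Suite assigned an enrichment E-score to each ungapped 8-mer, averaged over duplicate arrays.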
row,Sequence,PBM E-score of 8-mer
1,TCCAAACA,-0.0847 ± 0.0077
2,CGCTTTTC,0.0493 ± 0.07
3,GACAAGAC,0.139 ± 0.036
4,CTCTGGCA,0.00132 ± 0.054
5,CTTTTACC,-0.123 ± 0.076
6,TAAGATAA,-0.152 ± 0.069
7,CTGTTGTC,0.176 ± 0.015
8,AATCAGCC,-0.0972 ± 0.019
9,TTCTTCAA,-0.17 ± 0.034
10,AGGGTACA,-0.168 ± 0.054
11,ACAGGGTC,0.0451 ± 0.0068
12,ATCTTGAA,-0.166 ± 0.038
13,GTTTATGA,-0.11 ± 0.083
14,CGTCTTAA,-0.164 ± 0.11
15,ACGGTAGT,-0.189 ± 0.027
16,AAGGTGTC,0.4879 ± 0.0035
17,GCCCACAC,0.228 ± 0.089
18,AATAGGGG,-0.0444 ± 0.013
19,CGCAGGAG,-0.0946 ± 0.095
20,CTATGCTC,-0.0975 ± 0.035
21,ATTAGGGA,-0.279 ± 0.0072
22,AAACGCTG,-0.126 ± 0.034

row,Sequence,PBM E-score of 8-mer
1,CTTCCTTC,-0.145 ± 0.048
2,CATACTTC,-0.286 ± 0.058
3,AGAAAGAT,-0.145 ± 0.0054
4,GTAACCAC,0.115 ± 0.0041
5,TGCGGCAA,-0.0539 ± 0.0016
6,GCTGGCTA,-0.105 ± 0.025
7,AAAACACG,0.196 ± 0.033
8,ATATGTAG,-0.183 ± 0.12
9,CCAGCGGG,-0.226 ± 0.066
10,ATGCAGAA,-0.138 ± 0.029
11,GCAGTAAA,-0.0863 ± 0.0081
12,AGCTTAAC,-0.0796 ± 0.062
13,AGTTTTCC,-0.151 ± 0.047
14,CCTTCTAA,0.0249 ± 0.0094
15,ATATCATG,-0.0112 ± 0.014
16,CGAATACA,0.155 ± 0.015
17,ATTATTAC,0.0344 ± 0.013
18,CATGAATG,-0.144 ± 0.055
19,ATGTGCAG,0.0401 ± 0.038
20,CCTAGGGC,-0.0447 ± 0.054
21,CACTTGTA,0.0949 ± 0.008
22,TTAGAAAA,-0.0605 ± 0.08

row,Sequence,PBM E-score of 8-mer
1,ACTTTTCG,0.264 ± 0.018
2,CTGAGCTA,-0.151 ± 0.13
3,TAACTGAA,0.005 ± 0.045
4,GCAGTGCA,-0.123 ± 0.041
5,ACCACGGA,-0.0578 ± 0.054
6,CACACAAA,0.0927 ± 0.064
7,GTGCGCGA,0.102 ± 0.013
8,CAGTTCAC,0.226 ± 0.023
9,AGAGGCAC,-0.218 ± 0.027
10,ATATTGTG,0.196 ± 0.028
11,ATTAACAG,0.143 ± 0.048
12,GTCAGCTA,0.00582 ± 0.052
13,GTATGGCA,0.0931 ± 0.062
14,CAGTATCA,0.0243 ± 0.028
15,ATGCCACG,0.114 ± 0.025
16,GACAGTCC,0.0238 ± 0.018
17,ACGACAAG,0.175 ± 0.028
18,AAAGTGAC,0.392 ± 0.012
19,CCTAGTCA,0.0299 ± 0.046
20,CTTCGAGA,-0.0635 ± 0.0043
21,GTCAAAAA,0.0926 ± 0.056
22,GCTTGGCA,-0.141 ± 0.012

row,Sequence,PBM E-score of 8-mer
1,TAAATATA,-0.132 ± 0.034
2,ACTGGCCT,-0.15 ± 0.025
3,CGCTGATA,-0.0144 ± 0.019
4,ACGGCTGG,-0.102 ± 0.11
5,CAGAGTAG,-0.139 ± 0.047
6,ATGACATG,-0.116 ± 0.051
7,ACAGGCGG,0.00416 ± 0.0023
8,AGGTACGG,0.0668 ± 0.048
9,ATGAACCA,-0.22 ± 0.029
10,ATCAGCAT,0.122 ± 0.0034
11,AAAAGTTT,0.00113 ± 0.079
12,ACGAGGAG,-0.129 ± 0.0062
13,AAGTGGGC,0.108 ± 0.026
14,CGACCTCA,0.0582 ± 0.012
15,CCCTACGA,-0.0988 ± 0.015
16,CATGTGTC,0.309 ± 0.03
17,CCCAGAGA,-0.12 ± 0.088
18,AATATACC,-0.0185 ± 0.032
19,ACCATACC,-0.237 ± 0.015
20,AGACTCGG,-0.204 ± 0.034
